Experimental data from PubChem BioAssay AID1347428 (National Center for Advancing Translational Sciences (NCATS), 2020).
The whole screen tested about 91,000 compounds, of which about 290 (0.32%) were called active. This list was built around the results that the source calls inconclusive (neither active nor inactive); the mix of calls is not that of the screen. The call rests on the fitted dose curve; in most records, active means well fitted inhibition curve with a large enough effect; inconclusive means small, poorly fitted or top-dose-only effect; inactive means no such curve, though single readings can be large or run the other way. Where the call is inconclusive, the potency comes from a doubtful curve fit.

Biological target: Single-stranded DNA cytosine deaminase (Homo sapiens) (UniProt Q9GZX7)
UniProt Q9GZX7, sequence (Q9GZX7 whole entry, looked up): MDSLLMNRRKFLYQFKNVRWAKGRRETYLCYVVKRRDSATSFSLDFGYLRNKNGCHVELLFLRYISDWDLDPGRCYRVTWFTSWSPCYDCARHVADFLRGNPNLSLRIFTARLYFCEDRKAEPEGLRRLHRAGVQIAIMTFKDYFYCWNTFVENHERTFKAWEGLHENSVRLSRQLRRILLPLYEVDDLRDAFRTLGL
Experiment: Primary qHTS assay for inhibitors of Activation Induced Cytidine Deaminase (AID): AID signal; further: nearly all actives have a fitted effect of over 25% in size
Details: AID deamination FRET fluorescence, UDG-coupled, 4 h; series mostly up to 115 µM
Potency means the concentration at half of the fitted maximal effect; tags describe the fitted curve by direction and shape.

Compound | Potency
CCOc1ccc(CCNC(=O)c2cn(CC)c3ccc(S(=O)(=O)N4CCCCCC4)cc3c2=O)cc1OCC | inconclusive: 20 µM [inhibitor, full curve, poor fit]
Cc1ccc(F)c(NC(=O)Nc2ccc3snnc3c2)c1 | inactive
Cc1csc(NC(=O)CCc2ncc(-c3ccc(F)cc3F)o2)n1 | inactive
COc1cccc(-c2ocnc2C(=O)Nc2ccc(OC)cc2OC)c1 | inactive
CCCCN1CC(c2nc3ccccc3n2CCCCOc2ccc(C)c(C)c2)CC1=O (configuration not stated) | inconclusive: 79.4 µM [inhibitor, partial curve, poor fit]
OCCCNC(=S)Nc1ccc(F)cc1 | inactive
O=C(c1ccc(CSc2nc3ccncc3n2Cc2cccc(F)c2)cc1)N1CCCCC1 | inconclusive: 50.1 µM [inhibitor, partial curve, poor fit]
O=C(Nc1nc2nc(-c3ccccc3)cc(=O)n2[nH]1)c1ccc(Cl)cc1 | inconclusive: 20 µM [inhibitor, full curve, poor fit]
Cc1ccc(CNC(=O)c2nn(C)c3c2CS(=O)(=O)c2ccccc2-3)cc1 | inconclusive: 100 µM [inhibitor, single point]
Cc1ccc2oc(=O)n(CCCOc3ccc(Cl)cc3)c2c1 | inconclusive: 39.8 µM [inhibitor, partial curve, poor fit]
CCOc1ccc(CNC(=O)c2ccc3c(c2)c(C)c(C)n3Cc2ccc(Cl)cc2)cc1 | inconclusive: 44.7 µM [inhibitor, partial curve, poor fit]
COc1ccc(-c2cc(COC(=O)Cc3cccc(F)c3)on2)cc1 | inactive
CC(C)Nc1nc(-c2ccc3c(c2)CCC(=O)N3)cs1 | inactive
CCN(C)Cc1cccc(CNC(=O)Cc2cccc(C(F)(F)F)c2)c1 | inactive
Cc1ccc(CCNC(=O)c2ccc(CSCc3ccccc3Cl)o2)cc1 | inconclusive: 20 µM [inhibitor, full curve, poor fit]
O=C(CC1N=C2c3ccccc3N=C(SCc3ccccc3F)N2C1=O)NCc1ccc2c(c1)OCO2 (configuration not stated) | inconclusive: 79.4 µM [inhibitor, partial curve, poor fit]
COc1ccc(C2c3c(n(C)c4ccccc34)C(=O)N2CC(=O)Nc2ccccc2F)cc1 (configuration not stated) | inconclusive: 39.8 µM [inhibitor, partial curve]
O=C1c2[nH]nc(-c3ccc(Br)cc3)c2C(c2cccc(O)c2)N1c1ccc(Cl)cc1 (configuration not stated) | inactive
O=C(CSc1nc2ccccc2s1)Nc1cccc(C(F)(F)F)c1 | inactive
CCOc1ccccc1C(=O)Nc1c(NCc2ccccc2)c2ccccc2oc1=O | inactive
CC(CN(CCN(C)C)Cc1ccccc1)c1ccccc1 (configuration not stated) | inactive
CCOc1ccc(C2C=C(c3ccc(OC)cc3)Nc3ncnn32)cc1 (configuration not stated) | inactive
O=C(Cc1cn2ccsc2n1)Nc1ccc(S(=O)(=O)N2CCCC2)cc1 | inactive

Compound | Potency
COc1ccccc1CNC(=O)c1cnc2sc(N3CCCCCC3)nn2c1=O | inconclusive: 79.4 µM [inhibitor, partial curve, poor fit]
O=C(CSc1nnc2ccc3ccccc3n12)c1ccc(F)cc1 | inconclusive: 35.5 µM [inhibitor, partial curve, poor fit]
CCOC(=O)C1=C(CN2CCN(c3cc(C)ccc3C)CC2)NC(=O)NC1c1ccc(Cl)cc1 (configuration not stated) | inconclusive: 15.8 µM [inhibitor, partial curve, poor fit]
Cc1ccc(C)c(CN2C(=O)c3ccccc3S(=O)(=O)c3ccc(C(=O)N4CCN(c5ccccc5F)CC4)cc32)c1 | inconclusive: 14.1 µM [inhibitor, partial curve, poor fit]
COc1cc(CCNC(=O)c2cc(=O)c3ccccc3o2)ccc1OC(F)F | inactive
CCOc1ccc(NC(=O)CN2CCN(CC(=O)Nc3ccccc3OCC)CC2)cc1 | inconclusive: 20 µM [inhibitor, partial curve, poor fit]
COc1ccc(Cl)cc1NC(=O)CSc1nc(-c2ccco2)cc(C(F)(F)F)n1 | inconclusive: 100 µM [inhibitor, single point]
Cc1ccc(-c2c(NC(=O)CN3CCC(C(N)=O)CC3)oc3ccccc3c2=O)cc1 | inactive
CCOC1CSc2sc(=S)sc2S1 (configuration not stated) | inconclusive: 31.6 µM [inhibitor, full curve]
COC(=O)c1ccc(CNC(=O)C2CC=CCC2)cc1 (configuration not stated) | inactive
Cc1nn2c(C)c(C(=O)NCC(C)c3ccccc3)cnc2c1-c1ccccc1 (configuration not stated) | inconclusive: 15.8 µM [inhibitor, full curve, poor fit]
O=C(NCCc1nc2ccccc2n1CCCOc1ccc(Cl)cc1)C1CCCCC1 | inconclusive: 44.7 µM [inhibitor, partial curve]
Cc1cccc2cc(CN(C(=O)c3ccccc3)C(C)C)c(=O)[nH]c12 | inactive
Fc1ccc(Cn2c(-c3cccc(Br)c3)nc3ccccc32)cc1 | inconclusive: 44.7 µM [inhibitor, full curve, poor fit]
CCn1c(=O)c2cc(C(=O)NCCCN3CCC(C)CC3)sc2c2ccccc21 | inconclusive: 79.4 µM [inhibitor, partial curve, poor fit]
Cc1cccc(Cn2cc(S(=O)(=O)c3cccc(C)c3)c(=O)c3cc(F)c(N4CCOCC4)cc32)c1 | inconclusive: 89.1 µM [inhibitor, partial curve, poor fit]
COc1ccc(CNC(=O)CN(c2cccc(Cl)c2Cl)S(=O)(=O)c2ccccc2)cc1 | inactive
Cc1ccc(-c2cc(C(=O)N3CCOCC3C)n[nH]2)s1 (configuration not stated) | inactive
Cc1ccc(OCc2ccc(-c3nc(C#N)c(NCc4ccccc4Cl)o3)o2)cc1 | inconclusive: 70.8 µM [inhibitor, partial curve, poor fit]
COc1cccc(CNC(=O)c2cnc(N3CCCCC3)c3ccccc23)c1 | inconclusive: 25.1 µM [inhibitor, full curve, poor fit]
NC(N)=Nc1nc(-c2ccccc2)c2ccccc2n1 | inconclusive: 79.4 µM [inhibitor, partial curve]
O=C(CCOc1ccccc1)N(Cc1cccnc1)c1nc2c(F)cccc2s1 | inconclusive: 79.4 µM [inhibitor, single point]
O=C(Nc1ccc(Cl)c(C(F)(F)F)c1)C1CCN(S(=O)(=O)c2cccc3nonc23)CC1 | inactive

Compound | Potency
CC(C)(C)c1ccc(-c2nc(SCC(=O)Nc3ccccc3F)n3[nH]c(=O)cc3n2)cc1 | inconclusive: 89.1 µM [inhibitor, single point]
Cc1cccc(N2CCN(C(=O)Cn3nc(Cc4cccnc4)c4ccccc4c3=O)CC2)c1C | inconclusive: 44.7 µM [inhibitor, partial curve, poor fit]
COc1ccc(OCCOC(=O)CCC(=O)c2ccc3c(c2)OCCO3)cc1 | inactive
Cc1ccc2occ(CC(=O)N(Cc3ccc(C(C)C)cc3)C3CCS(=O)(=O)C3)c2c1 (configuration not stated) | inconclusive: 20 µM [inhibitor, full curve, poor fit]
CC(C)(C)c1ccc(C(=O)N2CCC(c3nc4ccccc4o3)CC2)cc1 | inconclusive: 50.1 µM [inhibitor, partial curve, poor fit]
Cc1ccccc1OCC(=O)NC12CC3CC(CC(C3)C1)C2 | inactive
CC1CCN(S(=O)(=O)c2nnc(NC(=O)c3cccc(Br)c3)s2)CC1 | inactive
CCS(=O)(=O)N1CCc2cc(C(=O)NCCc3ccc(OC)cc3)ccc21 | inconclusive: 39.8 µM [inhibitor, single point]
COc1cccc(C(=O)OCc2ccc(C#N)cc2)c1OC | inactive
CC1CCN(S(=O)(=O)c2ccc3c(ccn3CCC(=O)NCc3ccc(N(C)C)cc3)c2)CC1 | inconclusive: 20 µM [inhibitor, full curve]
Cc1nc(CN2CCN(C(=O)NC(C)Cc3ccco3)CC2)cs1 (configuration not stated) | inactive
COc1ccccc1N1CCN(CCCNC(=O)c2cnn(-c3cccc(Cl)c3)c2C2CCN(C(=O)OC(C)(C)C)CC2)CC1 | inconclusive: 56.2 µM [inhibitor, partial curve, poor fit]
Cc1ccc(-n2ncc3c(Nc4cccc(C)c4C)ncnc32)cc1 | inconclusive: 44.7 µM [inhibitor, partial curve, poor fit]
Cc1ccc2c(CC(=O)Nc3ccc(S(=O)(=O)N4CCCCC4)cc3)coc2c1 | inconclusive: 20 µM [inhibitor, full curve, poor fit]
Cc1c(C(=O)N2CCC(c3nc4ccccc4s3)CC2)oc2ccc(Cl)cc12 | inconclusive: 39.8 µM [inhibitor, single point]
COC(=O)c1cc(CNC(=O)Nn2cnc3ccccc32)ccc1OC | inactive
COc1ccccc1N1CCN(S(=O)(=O)c2c(C)sc3ncn(CC(=O)N(C)c4ccc(Cl)cc4)c(=O)c23)CC1 | inconclusive: 15.8 µM [inhibitor, full curve, poor fit]
Cc1ccc(Cl)cc1NC(=O)C(C)n1nc(-c2ccccc2)ccc1=O (configuration not stated) | inconclusive: 50.1 µM [inhibitor, partial curve, poor fit]
CC1CCN(S(=O)(=O)c2cn(CC(=O)Nc3cccc(-c4ccno4)c3)cn2)CC1 | inactive
CCOC(=O)c1c(C)oc2nc(C)nc(NCc3ccc(F)cc3)c12 | inactive
Cc1ccc(Cl)cc1N1CCN(C(=O)Cn2cnc3sc(C)c(S(=O)(=O)N4CCC(C)CC4)c3c2=O)CC1 | inconclusive: 31.6 µM [inhibitor, partial curve, poor fit]
